The text below walks through data of PMC9911399, “Two distinct binding modes provide the RNA-binding protein RbFox with extraordinary sequence specificity”.

To fix the notation:
B1: UUGCUGC (DNA:RNA)
RNA: GGGAGACCGGAAUUCAGAUUGUCCUUGCUGCUUAAAUCCCGUCGUAGCCACCA
DNA 1: CAATCTGAATTCCGGTCTCCC
DNA 2: TGGTGGCTACGACGGGATT
B2: GUAUUUG (DNA:RNA)
RNA: B1 RNA with U25G, G27A, C28U, G30U, C31G
DNA 1: CAATCTGAATTCCGGTCTCCC
DNA 2: TGGTGGCTACGACGGGATT
B3: CAGCAGC (DNA:RNA)
RNA: B1 RNA with U25C, U26A, U29A
DNA 1: CAATCTGAATTCCGGTCTCCC
DNA 2: TGGTGGCTACGACGGGATT
B4: UCGUUCA (DNA:RNA)
RNA: B1 RNA with U26C, C28U, G30C, C31A
DNA 1: CAATCTGAATTCCGGTCTCCC
DNA 2: TGGTGGCTACGACGGGATT
B5: CGUGCAG (DNA:RNA)
RNA: GGGAGACCGGAAUUCAGAUUGUCCCGUGCAGUUAAAUCCCGUCGUAGCCACCA
DNA 1: CAATCTGAATTCCGGTCTCCC
DNA 2: TGGTGGCTACGACGGGATT
B6: AAUCCCU (DNA:RNA)
RNA: B5 RNA with C25A, G26A, G28C, A30C, G31U
DNA 1: CAATCTGAATTCCGGTCTCCC
DNA 2: TGGTGGCTACGACGGGATT
B7: UACUGUG (DNA:RNA)
RNA: B5 RNA with C25U, G26A, U27C, G28U, C29G, A30U
DNA 1: CAATCTGAATTCCGGTCTCCC
DNA 2: TGGTGGCTACGACGGGATT
B8: CAUGAUC (DNA:RNA)
RNA: B5 RNA with G26A, C29A, A30U, G31C
DNA 1: CAATCTGAATTCCGGTCTCCC
DNA 2: TGGTGGCTACGACGGGATT
B9: AACUUUC (DNA:RNA)
RNA: B1 RNA with U25A, U26A, G27C, C28U, G30U
DNA 1: CAATCTGAATTCCGGTCTCCC
DNA 2: TGGTGGCTACGACGGGATT
B10: CUUUGGA (DNA:RNA)
RNA: B5 RNA with G26U, G28U, C29G, A30G, G31A
DNA 1: CAATCTGAATTCCGGTCTCCC
DNA 2: TGGTGGCTACGACGGGATT
B11: CGCGGUU (DNA:RNA)
RNA: B5 RNA with U27C, C29G, A30U, G31U
DNA 1: CAATCTGAATTCCGGTCTCCC
DNA 2: TGGTGGCTACGACGGGATT
B12: UGGAAGC (DNA:RNA)
RNA: B1 RNA with U26G, C28A, U29A
DNA 1: CAATCTGAATTCCGGTCTCCC
DNA 2: TGGTGGCTACGACGGGATT
B13: ACUUUAC (DNA:RNA)
RNA: B5 RNA with C25A, G26C, G28U, C29U, G31C
DNA 1: CAATCTGAATTCCGGTCTCCC
DNA 2: TGGTGGCTACGACGGGATT
B14: AGCGCGU (DNA:RNA)
RNA: B5 RNA with C25A, U27C, A30G, G31U
DNA 1: CAATCTGAATTCCGGTCTCCC
DNA 2: TGGTGGCTACGACGGGATT
B15: UUCAGAG (DNA:RNA)
RNA: B5 RNA with C25U, G26U, U27C, G28A, C29G
DNA 1: CAATCTGAATTCCGGTCTCCC
DNA 2: TGGTGGCTACGACGGGATT
B16: AGAAAUA (DNA:RNA)
RNA: B5 RNA with C25A, U27A, G28A, C29A, A30U, G31A
DNA 1: CAATCTGAATTCCGGTCTCCC
DNA 2: TGGTGGCTACGACGGGATT
B17: CUUCAGA (DNA:RNA)
RNA: B1 RNA with U25C, G27U, U29A, C31A
DNA 1: CAATCTGAATTCCGGTCTCCC
DNA 2: TGGTGGCTACGACGGGATT
B18: GCCCGCA (DNA:RNA)
RNA: B1 RNA with U25G, U26C, G27C, U29G, G30C, C31A
DNA 1: CAATCTGAATTCCGGTCTCCC
DNA 2: TGGTGGCTACGACGGGATT
B19: ACGUUCG (DNA:RNA)
RNA: B1 RNA with U25A, U26C, C28U, G30C, C31G
DNA 1: CAATCTGAATTCCGGTCTCCC
DNA 2: TGGTGGCTACGACGGGATT
B20: CGCGCAU (DNA:RNA)
RNA: B5 RNA with U27C, G31U
DNA 1: CAATCTGAATTCCGGTCTCCC
DNA 2: TGGTGGCTACGACGGGATT

Positions count from the first letter of the chain named. Some of the results follow.

This test addresses T1, RBFOX1 RRM RbFoxmut (Fox-RRM*) (Homo sapiens, UniProt Q9NWB1 109-208, R118D;E147R;N151S;E152T).
T1 sequence: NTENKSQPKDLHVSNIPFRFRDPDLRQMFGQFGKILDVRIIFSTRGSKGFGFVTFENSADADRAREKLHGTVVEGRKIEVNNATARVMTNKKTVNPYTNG
The test is described as follows: EMSA; HiTS-Eq, 1 nM pool, 10 min; buffer printed only for the single-RNA assays: 10 mM Tris pH 7.5, 150 mM NaCl, 3.4 mM EDTA, 0.001% NP-40, 30 C. To be noted: tags: His6 N-terminal (pET28a); label: 5' 32P. The method, boiled down: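 Purified RbFox RRM (wild type or mutant) was equilibrated for 10 min in 50 µL with 1 nM of a 5′-radiolabelled pool of RNA with 7 randomized nucleotides, its flanks annealed to DNA oligonucleotides, across increasing protein concentrations. Free RNA was separated by 8% native PAGE, excised, reverse-transcribed, PCR-barcoded and sequenced on an Illumina HiSeq 2500. Relative association constants came from read-count changes of each variant against the control reaction, normalised to the cognate motif.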
Background: Mobility shift assays separate free from complexed probe on a gel.
With B1, the binding signal was 0.129 KA relative to UGCAUGU.
The result for B2 reads 0.17 KA relative to UGCAUGU; that for B3, 0.0908 KA relative to UGCAUGU; that for B4, 0.117 KA relative to UGCAUGU.
The result for B5 reads 0.09 KA relative to UGCAUGU; that for B6, 0.0776 KA relative to UGCAUGU.
Regarding B7, the binding signal was 0.12 KA relative to UGCAUGU.
Consider B8, for which the binding signal is 0.0812 KA relative to UGCAUGU.
As for B9, the binding signal was 0.0515 KA relative to UGCAUGU.
Regarding B10, the binding signal is 0.0574 KA relative to UGCAUGU.
For B11, the binding signal was 0.103 KA relative to UGCAUGU.
The result for B12 reads 0.0933 KA relative to UGCAUGU; that for B13, 0.114 KA relative to UGCAUGU.
With B14, the binding signal was 0.118 KA relative to UGCAUGU.
With B15, the binding signal is 0.0975 KA relative to UGCAUGU.
With B16, the binding signal is 0.117 KA relative to UGCAUGU.
Consider B17, for which the binding signal was 0.0961 KA relative to UGCAUGU.
As to B18, the binding signal is 0.0939 KA relative to UGCAUGU.
For the molecule B19, the binding signal was 0.187 KA relative to UGCAUGU.
As to B20, the binding signal was 0.0928 KA relative to UGCAUGU.
